From a collection of fitness landscapes (doi:10.1126/science.1257360)
This is one part of the list.

B1: PhoQ; a variant is named by its letters at X, in order, P23837 (parent)
chain: MKKLLRLFFPLSLRVRFLLATAAVVLVLSLAYGMVALIGYSVSFDKTTFRLLRGESNLFYTLAKWENNKLHVELPENIDKQSPTMTLIYDENGQLLWAQRDVPWLMKMIQPDWLKSNGFHEIEADVNDTSLLLSGDHSIQQQLQEVREDDDDAEMTHSVAVNVYPATSRMPKLTIVVVDTIPVELKSSYMVWSWFIYVLSANLLLVIPLLWVAAWWSLRPIEALAKEVRELEEHNRELLNPATTRELTSLVRNLNRLLKSERERYDKYRTTLTDLTHSLKTPLXXLQXXLRSLRSEKMSVSDAEPVMLEQISRISQQIGYYLHRASMRGGTLLSRELHPVAPLLDNLTSALNKVYQRKGVNISLDISPEISFVGEQNDFVEVMGNVLDNACKYCLEFVEISARQTDEHLYIVVEDDGPGIPLSKREVIFDRGQRVDTLRPGQGVGLAVAREITEQYEGKIVAGESMLGGARMEVIFGRQHSAPKDE

Variants of: B1
Test: enrichment ratio after two sorts for PhoP signalling (ratio (wild type AVST 3.29)); higher = more functional
Settings: with PhoP (E. coli)
In the case of FYHR, the enrichment ratio is reported as ≤ 0.25. IKTN was tested, and the enrichment ratio was ≤ 0.25. For YYGI, the enrichment ratio was ≤ 0.25. In the case of EDQN, the enrichment ratio is reported as ≤ 0.25. In the case of HPPR, the enrichment ratio is reported as ≤ 0.25. For NTDL, the enrichment ratio was ≤ 0.25. For IFPK, the enrichment ratio was ≤ 0.25. TSQV was tested, and the enrichment ratio was 12.2. With QLHH the enrichment ratio was ≤ 0.25. In the case of MSGT, the enrichment ratio is reported as 2.82. QTTR was tested, and the enrichment ratio was ≤ 0.25. PAAW was tested, and the enrichment ratio was ≤ 0.25. GLCI was tested, and the enrichment ratio was 9.01. INGW was tested, and the enrichment ratio was ≤ 0.25. For ALVP, the enrichment ratio was ≤ 0.25. In the case of DEKI, the enrichment ratio is reported as ≤ 0.25. With RIVQ the enrichment ratio was ≤ 0.25. LTKA was tested, and the enrichment ratio was ≤ 0.25. In the case of GCTL, the enrichment ratio is reported as 4.94. ESIF was tested, and the enrichment ratio was ≤ 0.25. For LQDA, the enrichment ratio was ≤ 0.25. MAYV was tested, and the enrichment ratio was 15.4. In the case of VNIN, the enrichment ratio is reported as ≤ 0.25. KMPM was tested, and the enrichment ratio was ≤ 0.25. Work on STIL yielded an enrichment ratio of 9.06. With EEQH the enrichment ratio was ≤ 0.25. For GIQC, the enrichment ratio was ≤ 0.25. With INRM the enrichment ratio was ≤ 0.25. With YEMA the enrichment ratio was 0.594. RLWE was tested, and the enrichment ratio was ≤ 0.25. With EQMW the enrichment ratio was ≤ 0.25. With QCKF the enrichment ratio was ≤ 0.25. In the case of VWIY, the enrichment ratio is reported as ≤ 0.25. For PLAN, the enrichment ratio was ≤ 0.25. VREF was tested, and the enrichment ratio was ≤ 0.25. SITP was tested, and the enrichment ratio was ≤ 0.25. With DPQF the enrichment ratio was ≤ 0.25. For LPYC, the enrichment ratio was ≤ 0.25. With EAAV the enrichment ratio was ≤ 0.25. WFAG was tested, and the enrichment ratio was ≤ 0.25. For LHDL, the enrichment ratio was ≤ 0.25. FDCK was tested, and the enrichment ratio was ≤ 0.25. YPDK was tested, and the enrichment ratio was ≤ 0.25. In the case of RPKS, the enrichment ratio is reported as ≤ 0.25. With GDKY the enrichment ratio was ≤ 0.25. With VGAK the enrichment ratio was ≤ 0.25. With MSNR the enrichment ratio was ≤ 0.25. CWML was tested, and the enrichment ratio was ≤ 0.25. Variant HMTM has an enrichment ratio of 11.7. For PHYG, the enrichment ratio was ≤ 0.25. RFKY was tested, and the enrichment ratio was ≤ 0.25. For KGNV, the enrichment ratio was ≤ 0.25. DDVI was tested, and the enrichment ratio was ≤ 0.25. For AQFH, the enrichment ratio was ≤ 0.25. For VRVP, the enrichment ratio was ≤ 0.25. In the case of QHDW, the enrichment ratio is reported as ≤ 0.25. With HTAV the enrichment ratio was ≤ 0.25. In the case of ATME, the enrichment ratio is reported as 7.5. For SGFI, the enrichment ratio was 4.52. With QCFD the enrichment ratio was ≤ 0.25. For IDIA, the enrichment ratio was ≤ 0.25. For DYYG, the enrichment ratio was ≤ 0.25. With IPNL the enrichment ratio was ≤ 0.25. In the case of QQLK, the enrichment ratio is reported as ≤ 0.25. NKPK was tested, and the enrichment ratio was ≤ 0.25. LCGL was tested, and the enrichment ratio was ≤ 0.25. In the case of EDVS, the enrichment ratio is reported as ≤ 0.25. EFCA was tested, and the enrichment ratio was ≤ 0.25. For MDSN, the enrichment ratio was ≤ 0.25. For SANQ, the enrichment ratio was ≤ 0.25. YQPW was tested, and the enrichment ratio was ≤ 0.25. In the case of KCND, the enrichment ratio is reported as ≤ 0.25. For ACSH, the enrichment ratio was 6.81. In the case of LYKE, the enrichment ratio is reported as ≤ 0.25. In the case of KTNH, the enrichment ratio is reported as ≤ 0.25. With LWGW the enrichment ratio was ≤ 0.25. With FNFP the enrichment ratio was ≤ 0.25. Variant ALGL has an enrichment ratio of 8.36. With EPIW the enrichment ratio was ≤ 0.25. With VQST the enrichment ratio was ≤ 0.25. With DMWN the enrichment ratio was ≤ 0.25. For PRGH, the enrichment ratio was ≤ 0.25. In the case of VNGF, the enrichment ratio is reported as ≤ 0.25. KPQL was tested, and the enrichment ratio was ≤ 0.25. With ARMM the enrichment ratio was 5.29. In the case of GNAR, the enrichment ratio is reported as ≤ 0.25. WTSW was tested, and the enrichment ratio was ≤ 0.25. In the case of LMEE, the enrichment ratio is reported as ≤ 0.25. MVHR was tested, and the enrichment ratio was ≤ 0.25. HPRS was tested, and the enrichment ratio was ≤ 0.25. For PYDR, the enrichment ratio was ≤ 0.25. For DSVY, the enrichment ratio was ≤ 0.25. Variant MIYR has an enrichment ratio of 2.6. With NDDS the enrichment ratio was ≤ 0.25. In the case of VHLR, the enrichment ratio is reported as ≤ 0.25. For WNVS, the enrichment ratio was ≤ 0.25. In the case of MTPG, the enrichment ratio is reported as ≤ 0.25. SGSF was tested, and the enrichment ratio was 1.84. In the case of SSQD, the enrichment ratio is reported as ≤ 0.25. With QNIQ the enrichment ratio was ≤ 0.25. With FEFE the enrichment ratio was ≤ 0.25. SEQN was tested, and the enrichment ratio was 21.6. In the case of KSDW, the enrichment ratio is reported as ≤ 0.25. With YEHH the enrichment ratio was ≤ 0.25. NKQA was tested, and the enrichment ratio was ≤ 0.25. SYLI gave an enrichment ratio of 0.306. FWNP was tested, and the enrichment ratio was ≤ 0.25. With KQAV the enrichment ratio was ≤ 0.25. For TGLE, the enrichment ratio was 9.53. With GWCH the enrichment ratio was ≤ 0.25. LYFS was tested, and the enrichment ratio was ≤ 0.25. For GIYM, the enrichment ratio was ≤ 0.25. TVDN was tested, and the enrichment ratio was ≤ 0.25. For KISK, the enrichment ratio was ≤ 0.25. With HTSI the enrichment ratio was ≤ 0.25. In the case of SNWH, the enrichment ratio is reported as ≤ 0.25. For RNCW, the enrichment ratio was ≤ 0.25. QEVI was tested, and the enrichment ratio was ≤ 0.25. IAMG was tested, and the enrichment ratio was ≤ 0.25. For ITAF, the enrichment ratio was ≤ 0.25. LTFT was tested, and the enrichment ratio was ≤ 0.25. In the case of ELEP, the enrichment ratio is reported as ≤ 0.25. In the case of IHQN, the enrichment ratio is reported as ≤ 0.25. In the case of SEHC, the enrichment ratio is reported as ≤ 0.25. In the case of QPPS, the enrichment ratio is reported as ≤ 0.25. For TYMM, the enrichment ratio was 2.16. With RVYR the enrichment ratio was ≤ 0.25. With EYRD the enrichment ratio was ≤ 0.25. DVCR was tested, and the enrichment ratio was ≤ 0.25. In the case of PMNW, the enrichment ratio is reported as ≤ 0.25. For YMKR, the enrichment ratio was ≤ 0.25. For IHFN, the enrichment ratio was ≤ 0.25. In the case of GQHD, the enrichment ratio is reported as ≤ 0.25. In the case of FQRI, the enrichment ratio is reported as ≤ 0.25. In the case of NAIY, the enrichment ratio is reported as ≤ 0.25. VFTD was tested, and the enrichment ratio was ≤ 0.25. With VNYK the enrichment ratio was ≤ 0.25. HTSK was tested, and the enrichment ratio was ≤ 0.25. In the case of KFTH, the enrichment ratio is reported as ≤ 0.25. For QSVC, the enrichment ratio was ≤ 0.25. MIQH was tested, and the enrichment ratio was ≤ 0.25. For HCRF, the enrichment ratio was ≤ 0.25. In the case of ASNA, the enrichment ratio is reported as ≤ 0.25. With YQVV the enrichment ratio was ≤ 0.25. RGFC gave an enrichment ratio of 2.13. With DWYK the enrichment ratio was ≤ 0.25. VSPK was tested, and the enrichment ratio was ≤ 0.25. With YDPI the enrichment ratio was ≤ 0.25. With GYDP the enrichment ratio was ≤ 0.25. For YWII, the enrichment ratio was ≤ 0.25. With PDRK the enrichment ratio was ≤ 0.25. With LQMM the enrichment ratio was ≤ 0.25. For HDYY, the enrichment ratio was ≤ 0.25.
